In the supplement of paper PMC3334620:
Over roughly 33,000 sequences, “E-score (-0.5 to 0.5)” has its median near -0.011; the highest 2% begin near 0.28. The list shows a part of the results.

biological target: T1, Gcr1 (UniProt P07261); assay: PBM E-score (8-mer binding enrichment) (E-score (-0.5 to 0.5)); higher = stronger / more preferred TF binding; most listed sequences are background and not binding sites; settings: protein concentration: 100 nM; construct: GST-full length
T1 sequence: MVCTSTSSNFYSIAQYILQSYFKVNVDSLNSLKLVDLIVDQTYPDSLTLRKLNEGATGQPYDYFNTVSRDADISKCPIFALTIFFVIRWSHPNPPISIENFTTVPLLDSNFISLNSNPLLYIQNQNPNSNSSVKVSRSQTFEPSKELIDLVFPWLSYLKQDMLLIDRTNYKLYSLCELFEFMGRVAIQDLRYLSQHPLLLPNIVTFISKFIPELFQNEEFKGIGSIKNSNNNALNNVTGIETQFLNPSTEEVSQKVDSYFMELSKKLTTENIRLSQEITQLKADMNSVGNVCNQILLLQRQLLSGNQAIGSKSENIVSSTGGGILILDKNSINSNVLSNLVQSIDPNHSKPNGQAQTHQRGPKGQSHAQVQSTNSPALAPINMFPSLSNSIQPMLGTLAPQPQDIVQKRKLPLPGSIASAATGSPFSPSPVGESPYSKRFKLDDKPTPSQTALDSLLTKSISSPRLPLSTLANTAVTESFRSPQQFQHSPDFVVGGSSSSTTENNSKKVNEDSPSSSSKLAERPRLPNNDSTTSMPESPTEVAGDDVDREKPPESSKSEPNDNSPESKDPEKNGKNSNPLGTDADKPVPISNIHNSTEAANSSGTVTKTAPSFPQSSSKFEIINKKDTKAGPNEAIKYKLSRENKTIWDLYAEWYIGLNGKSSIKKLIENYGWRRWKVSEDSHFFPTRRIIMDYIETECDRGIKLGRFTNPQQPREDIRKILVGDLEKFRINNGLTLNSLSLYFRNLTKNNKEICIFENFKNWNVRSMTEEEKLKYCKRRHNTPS
Summary of the method: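 The E-score, a modified Wilcoxon-Mann-Whitney statistic, was computed by the Universal PBM Analysis Suite for every ungapped eight-base word pooled with its reverse complement. Scans behind it were normalised with masliner after bound GST-tagged yeast transcription factors were detected with fluorescent anti-GST. The proteins, at about 100-200 nM, had been applied to universal all-10-mer Agilent arrays made double-stranded by primer extension.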

Row | Sequence | PBM E-score
1 | CGAACAAG | 0.083
2 | AAGGTGGT | 0.088
3 | ACGACAAT | -0.0803
4 | ACCACTAA | 0.285
5 | GGGCTATA | -0.0411
6 | CGCAAGGA | -0.0605
7 | GTCCGAAA | 0.212
8 | ACACCCGT | -0.0355
9 | AGTGTGTC | -0.0681
10 | ATATTCCG | 0.131
11 | AAGTTAGC | 0.14
12 | CATAGTGC | 0.0478
13 | GGTTTGAA | -0.00939
14 | CGCGGAGC | -0.112
15 | GCAAGTTA | 0.132
16 | GCTGCGAC | 0.131
17 | CCCGTTGC | -0.024
18 | CGCTCTTA | -0.132
19 | CTGACCCA | -0.116
20 | GCGGCACC | 0.324
21 | GCAGACGA | -0.00236
22 | CCGTTAGA | -0.184
23 | CAACGTAG | -0.0877
24 | ATACGACG | 0.135
25 | TGTGCACA | -0.211

Row | Sequence | PBM E-score
26 | ACCTCGCT | -0.0253
27 | AGTCGAAG | 0.00821
28 | ATACCCGC | 0.165
29 | CTACGGGA | -0.0438
30 | CAACAGGA | 0.226
31 | AATAACAG | 0.023
32 | AGGAACCC | 0.414
33 | ACCGCACT | -0.0376
34 | CCTATTTA | 0.247
35 | GGTGCACA | -0.0102
36 | ATCGAAAG | 0.0655
37 | AAGACAGA | 0.0846
38 | AAACATTT | 0.114
39 | AGGTGCGG | 0.084
40 | TATATAGA | 0.139
41 | CTTAAGGA | 0.089
42 | ACGTGGCG | -0.111
43 | ATGCTCTC | -0.181
44 | GTTCGAAC | -0.273
45 | AATGGTTG | 0.219
46 | AATATTGG | 0.136
47 | CGGATGCC | 0.404
48 | AGCCCGTC | -0.126
49 | AAAACGAA | 0.0166
50 | CAAATGAG | -0.0616

Row | Sequence | PBM E-score
51 | GAACGGAA | 0.147
52 | ACCGGAAT | 0.185
53 | GATAGAGA | -0.208
54 | CGTTAGAC | -0.206
55 | ATTCGCAC | 0.151
56 | CAAACTCG | -0.0788
57 | AGGCCGCG | 0.0497
58 | AGTATGAG | 0.0911
59 | AATTCTCC | 0.132
60 | CATGAACA | 0.0345
61 | CACGACAG | -0.156
62 | GCCTATTA | 0.0413
63 | CCCTGGAC | 0.00836
64 | CACATATA | 0.00725
65 | TGAAGTCA | -0.142
66 | CATTGATA | 0.121
67 | ACAGACGT | -0.102
68 | GCCACCCC | -0.0686
69 | CGGGAGAG | -0.159
70 | ACATTGCC | -0.215
71 | CGAGTCGA | -0.0785
72 | TCGTTTCA | 0.077
73 | AAACAGTC | -0.193
74 | CAGTATAA | 0.12
75 | GCCTAGAC | -0.0881

Row | Sequence | PBM E-score
76 | GATACTCC | -0.102
77 | AGCGAATC | -0.0692
78 | CAAAAAAG | 0.0858
79 | ACGTGGTA | 0.0341
80 | AAAGTATG | -0.142
81 | CATCGCGC | 0.0318
82 | GCCTACGC | -0.251
83 | CTCGCAAC | 0.116
84 | AATAATAG | 0.174
85 | GATACCAA | 0.154
86 | CTTGACGA | 0.0408
87 | AGTTAATG | 0.139
88 | ACGTGGTC | -0.122
89 | TCTGCTAA | 0.134
90 | CCCACGCA | -0.152
91 | ATTAATCC | -0.00583
92 | ATGTAGGG | -0.0731
93 | AACCCCGT | -0.16
94 | ACACTTAA | 0.0453
95 | CTTGCTAC | -0.134
96 | ACTGGATA | 0.108
97 | TAGAGATA | 0.0586
98 | CCGACGTC | -0.205
99 | ACTCCTCT | -0.00214
100 | ACTGATAA | 0.123

Row | Sequence | PBM E-score
101 | CTGGGCAC | 0.239
102 | CATACTAA | 0.00569
103 | CTATTCTC | 0.0222
104 | AGTTGTAC | -0.0696
105 | CGAGAGTC | -0.0457
106 | AAGAACAG | -0.0613
107 | CGCAGCAG | 0.0351
108 | AGGCAGGA | -0.16
109 | GTGCCGAA | 0.101
110 | ATCTGTCC | -0.0498
111 | CGGCTTAC | -0.205
112 | AAGGAAAT | -0.0571
113 | AAGAGAAC | -0.0316
114 | CCTAGCCA | -0.0616
115 | ATATGGGA | -0.00549
116 | AAATTGAA | -0.147
117 | AGGAGGGG | 0.122
118 | AACTCGCA | 0.0562
119 | GCACATTA | -0.0914
120 | CTCACGAA | -0.109
121 | GACAGAAA | 0.0677
122 | AGCGGGTC | -0.102
123 | GACAGCAC | -0.0932
124 | CCATGGAG | 0.00021
125 | CAAAGAAG | 0.184

Row | Sequence | PBM E-score
126 | TGCGCGCA | 0.265
127 | CTCACTCA | -0.0579
128 | ATCCTTCC | -0.273
129 | CGACAAGA | -0.0523
130 | ATGGCTCG | -0.0906
131 | CAGCATGC | -0.257
132 | GGCACTCA | -0.189
133 | ATAGGGAA | 0.0857
134 | GCTGCTCA | 0.127
135 | ATGGATCG | -0.224
136 | CACAAGAG | 0.0544
137 | GAATGCAC | 0.0479
138 | ACCCGCTC | -0.0223
139 | ATTAATGC | -0.0674
140 | CGCAAAGA | -0.0565
141 | GAAGCCAA | 0.29
142 | CACCGCTG | -0.0479
143 | AGAACTAC | -0.128
144 | CGGAAATC | -0.0578
145 | ACGTTCAC | -0.22
146 | CTGTACAC | -0.082
147 | ACTATAGC | -0.152
148 | CCATCTAC | -0.144
149 | CCAGATGG | 0.114
150 | TAAGATTA | -0.0364

Row | Sequence | PBM E-score
151 | CTCGACGC | -0.076
152 | CCTAGCAC | 0.157
153 | AATGACAC | -0.0813
154 | ATATTAGC | 0.0943
155 | ATAGCGGC | 0.072
156 | AGGTCACG | -0.175
157 | GGTAGGAC | -0.177
158 | CCCGCCTC | -0.162
159 | CCCGGAAG | 0.182
160 | AGACGCTA | 0.293
161 | AATGGCAA | -0.0531
162 | ACCACCGC | -0.182
163 | CAATTACA | -0.0309
164 | CATAGAGA | -0.147
165 | CCGGACAG | -0.286
166 | ATTTGGAC | 0.166
167 | GCTACTAC | 0.239
168 | TAGCAAGA | -0.0531
169 | AAGCACGT | 0.202
170 | CGGTCATA | -0.37
171 | CTAAATAA | 0.102
172 | TACAATGA | 0.0447
173 | GGTGAGGA | -0.0681
174 | ATTACCCC | -0.0683
175 | CCGCGACA | 0.0236

Row | Sequence | PBM E-score
176 | GCAATCAA | 0.0455
177 | AGCCCGGG | -0.0203
178 | GCGGGGTA | -0.101
179 | AATCGCCC | -0.26
180 | AGGATCAT | -0.0661
181 | CTATTCCA | 0.112
182 | AGCAACTG | 0.0502
183 | ACTAAAAT | 0.209
184 | TCGGACGA | -0.183
185 | CAGAAGAA | 0.212
186 | AAACTGTT | 0.00939
187 | AACTCGTG | 0.0132
188 | CTGGACAC | 0.172
189 | AACATTCT | 0.0927
190 | GTCCTGAA | 0.196
191 | AATCCAGA | 0.259
192 | ATGCGGCG | 0.105
193 | CACATGCA | -0.118
194 | AAGTGGAC | 0.15
195 | ATAGTGAG | -0.202
196 | AGCCTAAA | 0.0999
197 | ATCAGGTA | 0.0928
198 | CCCTGTCG | -0.151
199 | ATCTACAA | 0.0342
200 | CACCATGG | -0.087

Row | Sequence | PBM E-score
201 | GTAATCTA | 0.0152
202 | ACGCGCTC | -0.00866
203 | AATAAATT | 0.0276
204 | TGCTATAA | -0.172
205 | AAGGGGAC | -0.0201
206 | ACATGCGC | -0.117
207 | TACCTGGA | -0.0183
208 | CGGCGACC | 0.207
209 | AGCTTCAC | 0.102
210 | CTTATTCC | -0.0914
211 | AGCGCCAC | 0.122
212 | ATCAGGAG | 0.0606
213 | GAGCTCCC | -0.0043
214 | ACTTAACC | -0.196
215 | TGAAGTAA | -0.137
216 | AAAAGATC | -0.0633
217 | CGAGTAGC | -0.018
218 | GTAAGTAA | -0.0882
219 | GTAGATCA | 0.0312
